Consider 9 molecules from patent US11434289B2, “Anti-GPR20 antibody and anti-GPR20 antibody-drug conjugate” (DAIICHI SANKYO COMPANY, LIMITED, priority 2017, dated 2022).

Changes are numbered by the printed parent chain. Where only a bound is given, the exact number is not on record here.

Assay [1] deals with T1, human GPR20 (Homo sapiens, UniProt Q99678).
T1 construct: expressed in transfected cells; host or cells: 293T cells, transient, Lipofectamine 2000
T1 sequence (Q99678 1-358): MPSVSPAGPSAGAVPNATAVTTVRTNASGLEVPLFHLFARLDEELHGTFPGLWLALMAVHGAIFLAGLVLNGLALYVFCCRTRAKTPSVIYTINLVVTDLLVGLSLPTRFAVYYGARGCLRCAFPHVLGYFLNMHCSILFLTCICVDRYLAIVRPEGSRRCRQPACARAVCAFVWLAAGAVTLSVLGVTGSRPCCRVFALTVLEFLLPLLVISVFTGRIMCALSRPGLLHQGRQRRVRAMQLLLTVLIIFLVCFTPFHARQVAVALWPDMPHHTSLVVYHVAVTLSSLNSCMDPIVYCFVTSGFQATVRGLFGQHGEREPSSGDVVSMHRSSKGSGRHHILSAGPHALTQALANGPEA
As to the kind of experiment: Internalization activity of humanized anti-GPR20 antibodies with Hum-ZAP in HEK293 cells stably expressing GPR20-EGFP. The class given is cell-based. Conditions: antibody 0.015 to 1.27 μg/mL, Hum-ZAP 1 μg/mL, 4 days.

Assay [2] concerns the target T1, human GPR20. As to the kind of experiment: Binding activity of humanized anti-GPR20 antibodies and antibody-drug conjugates by flow cytometry. Conditions: 293T cells transfected with pcDNA3.1-hGPR20; FIG. 25. In general terms: A flow cytometer gives signals particle by particle.
The subject of assay [3] is GIST-T1/GPR20 cells. As to the kind of experiment: In vitro cell proliferation-suppressive activity of ADC (CellTiter-Glo). Type of assay: cell-based, human. The note with it: 0.032 to 100 nM, culture for 7 to 11 days; FIG. 26, FIG. 27. For orientation: ATP-based viability assays read luminescence as a measure of living cells.
The test system of assay [4] is GIST-T1/GPR20 cells. As to the kind of experiment: Antitumor effect in subcutaneously GIST-T1/GPR20 cell-transplanted nude mouse models. The class given is in vivo, BALB/c nude mice.
The next assay deals with GIST020. As to the kind of experiment: Antitumor effect in subcutaneously GIST020-transplanted nude mouse models. Conditions: 10 mg/kg intravenously on Days 55 and 75; compared with control group; FIG. 33. The class given is in vivo, BALB/c nude mice.
The test system of another assay is GIST1. As to the kind of experiment: Antitumor effect in subcutaneously GIST1-transplanted nude mouse models. The class given is in vivo, BALB/c nude mice. Conditions: 3 or 10 mg/kg intravenously on Days 38 and 59; compared with control group; FIG. 34.
In assay [5] the test system is stomach cancer cell line NCI-N87. As to the kind of experiment: Antitumor effect in subcutaneously NCI-N87 cell-transplanted nude mouse models (no GPR20 expression). The class given is in vivo, BALB/c nude mice. The note with it: 3 or 10 mg/kg intravenously on Day 6; FIG. 35.
Another assay deals with GIST074. As to the kind of experiment: Antitumor effect in subcutaneously GIST074-transplanted nude mouse models (regorafenib-unresponsive patient tumor). The note with it: 10 mg/kg intravenously on Days 29 and 50; FIG. 36. Type of assay: in vivo, BALB/c nude mice. The protocol:
The antitumor effects of the antibody-drug conjugates were evaluated using animal models derived from immunodeficient mice by the transplantation of human gastrointestinal stromal tumor-derived cells. Five- to 6-week-old female BALB/c nude mice (CAnN.Cg-Foxnlnu/CrlCrlj, Charles River Laboratories Japan Inc.) were acclimatized for 4 to 7 days under SPF conditions before use in the experiment. The mice were fed with a sterilized solid diet (FR-2, Funabashi Farms Co., Ltd) and given sterilized tap water (which had been prepared by adding a 5 to 15 ppm sodium hypochlorite solution to tap water). The longest diameter and the shortest diameter of the transplanted tumor were measured once or twice a week using electronic digital calipers (CD-15CX, Mitutoyo Corp.), and the volume of the tumor was then calculated according to the following equation. Tumor volume (mm^3)=½×Longest diameter (mm)×[Shortest diameter (mm)]^2
[…] ABS buffer was administered in the same manner as above to a control group (vehicle group). Five or six mice per group were used in the experiment. […]

Assay [6] concerns human gastrointestinal stromal tumor cell line GIST430. As to the kind of experiment: Antitumor effect in subcutaneously GIST430 cell-transplanted nude mouse models. The note with it: 10 mg/kg intravenously on Days 29, 36 and 43; compared with control group; FIG. 29. The class given is in vivo, BALB/c nude mice.
Where [7] appears, read: 10 mg/kg intravenously on Day 14, FIG. 28.

B1: h046-H4b/L7: humanized h046-H4b type heavy chain and humanized h046-L7 type light chain (antibody)
heavy: QVQLVQSGAEVKKPGASVKVSCKASGYTFTSYYISWIRQAPGQGLKYMGFINPGSGHTNYNEKFKGRVTITADKSSSTATMELSSLRSEDTAVYYCARGAGGFLRIITKFDYWGQGTLVTVSSASTKGPSVFPLAPSSKSTSGGTAALGCLVKDYFPEPVTVSWNSGALTSGVHTFPAVLQSSGLYSLSSVVTVPSSSLGTQTYICNVNHKPSNTKVDKRV[letters of human IgG1 Fc omitted]
light: DTQLTQSPSSLSASVGDRVTITCRASKSVSTYIHWYQQKPGKQPKLLIYSAGNLESGVPSRFSGSGSGTDFTLTISSLQPEDFANYYCQQINELPYTFGQGTKVEIKRTVAAPSVFIFPPSDEQLKSGTASVVCLLNNFYPREAKVQWKVDNALQSGNSQESVTEQDSKDSTYSLSSTLTLSKADYEKHKVYACEVTHQGLSSPVTKSFNRGEC
With B1, the “cell proliferation-suppressive effect by antibody internalization” value with human GPR20 [1] is “exhibited a cell proliferation-suppressive effect by antibody internalization”. Also, in the assay with human GPR20 [2], the “amount of the antibody bound based on MFI” value is on record as “increased in a concentration-dependent manner”.

B2: antibody-drug conjugate (8): antibody-drug conjugate produced from h046-H5b/L2; n 7.7 by common procedure F (conjugate)
heavy: B1 heavy with T80N
light: B1 light with T2I, L4M, G52S, N85T
With B2, the “cell proliferation-suppressive activity (number of live cells, ATP)” value (from here on “cell proliferation-suppressive activity”) in the assay with GIST-T1/GPR20 cells [3] is “concentration-dependent cell proliferation-suppressive activity”.

B3: antibody-drug conjugate (7): antibody-drug conjugate produced from h046-H4b/L7; n 7.6 by common procedure F (conjugate)
heavy: B1 heavy
light: B1 light
Take B3: the “cell proliferation-suppressive activity” value with GIST-T1/GPR20 cells [3] is listed as “concentration-dependent cell proliferation-suppressive activity”.

B4: antibody-drug conjugate (13): antibody-drug conjugate produced from h046-H4e/L7; n 7.7 by common procedure F (conjugate)
heavy: B1 heavy with Q1E
light: B1 light
Consider B4, for which the “amount of the antibody bound based on MFI” value in the assay with human GPR20 [2] is “increased in a concentration-dependent manner”. Further, the tumor volume entry in the assay with GIST-T1/GPR20 cells [4] (0.3, 1, or 3 mg/kg intravenously on Day 17, FIG. 32) was “decreased tumor volume in a dose-dependent manner”; with GIST020, “remarkably decreased tumor volume”; with GIST1 it was “remarkably decreased tumor volume”. The “dose effective for tumor regression” value with GIST-T1/GPR20 cells [4] (single intravenous dose on Day 17, FIG. 32) is listed as not below 1 mg/kg.

B5: antibody-drug conjugate (4): antibody-drug conjugate produced from h046-H4b/L7, larger batch; n 7.4 by common procedure F (conjugate)
heavy: B1 heavy
light: B1 light
Consider B5, for which the “amount of the antibody bound based on MFI” value with human GPR20 [2] is on record as “increased in a concentration-dependent manner”. Also, the tumor volume entry in the assay on GIST020 is “remarkably decreased tumor volume”.

B6: antibody-drug conjugate (14): antibody-drug conjugate produced from h046-H4e/L7; n 7.6 by common procedure F (conjugate)
heavy: B1 heavy with Q1E
light: B1 light
B6: the tumor growth-suppressive effect entry in assay [5] was “no significant tumor growth-suppressive effect”. Also, the tumor growth result in the assay on GIST074 was “completely suppressed tumor growth”.

B7: antibody-drug conjugate (9): antibody-drug conjugate produced from h046-Hwt/L6; n 7.4 by common procedure F (conjugate)
heavy: QVQLQQSGAELAKPGSSVKISCKASGYTFTSYYISWIKQTTGQGLKYIGFINPGSGHTNYNEKFKGKATLTVDKSSSTAFMQLSSLTPDDSAIYYCARGAGGFLRIITKFDYWGQGVMVTVSSASTKGPSVFPLAPSSKSTSGGTAALGCLVKDYFPEPVTVSWNSGALTSGVHTFPAVLQSSGLYSLSSVVTVPSSSLGTQTYICNVNHKPSNTKVDKRV[letters of human IgG1 Fc omitted]
light: B1 light with G52S, N53D, L54R
For B7, in the assay on GIST-T1/GPR20 cells [3], the “cell proliferation-suppressive activity” value is “concentration-dependent cell proliferation-suppressive activity”. Besides, the tumor volume result with GIST-T1/GPR20 cells [4] (10 mg/kg intravenously on Day 24, FIG. 30) is given as “remarkably decreased tumor volume”.

B8: antibody-drug conjugate (1): antibody-drug conjugate produced from human chimeric antibody 04-046Ch; average number of conjugated drug molecules 5.6 (conjugate)
heavy: B7 heavy
light: DTVLTQSPALAVSLGQRVTISCRASKSVSTYIHWYQQRSGQQPKLLIYSASNLESGVPSRFSGSGSGTDFTLTIDPVEPDDIANYYCQQINELPYTFGAGTKLELKRAVAAPSVFIFPPSDEQLKSGTASVVCLLNNFYPREAKVQWKVDNALQSGNSQESVTEQDSKDSTYSLSSTLTLSKADYEKHKVYACEVTHQGLSSPVTKSFNRGEC
In the case of B8, the “cell proliferation-suppressive activity” value with GIST-T1/GPR20 cells [3] is “concentration-dependent cell proliferation-suppressive activity”. For the same molecule, the tumor volume entry (in the assay on GIST-T1/GPR20 cells [4] (setting [7]); in [6]) was “remarkably decreased tumor volume” throughout.

B9: antibody-drug conjugate (2): antibody-drug conjugate produced from 04-046Ch; average number of conjugated drug molecules 5.6 (conjugate)
heavy: B7 heavy
light: B8 light
For the molecule B9, the tumor volume result (in the assay with GIST-T1/GPR20 cells [4] (setting [7]); in [6]) was “remarkably decreased tumor volume” each time.
